From patent publication US20230303648A1 (OSE IMMUNOTHERAPEUTICS, published 2023)
Each block holds one binder with its values, some of them ahead of it.

How the values were obtained:
[1] = molecular target: T1, CD127 recombinant protein (Histidine tagged, Sino ref 10975-H08H) (UniProt P16871 21-239); experiment: sandwich ELISA: PD-1 immobilised, fusion preincubated with His-tagged CD127, anti-His detection
T1 construct: bought; used in the CD127 sandwich ELISA; also called CD127 receptor; IL-7Ralpha; not shown: histidine tag
T1 sequence (looked up): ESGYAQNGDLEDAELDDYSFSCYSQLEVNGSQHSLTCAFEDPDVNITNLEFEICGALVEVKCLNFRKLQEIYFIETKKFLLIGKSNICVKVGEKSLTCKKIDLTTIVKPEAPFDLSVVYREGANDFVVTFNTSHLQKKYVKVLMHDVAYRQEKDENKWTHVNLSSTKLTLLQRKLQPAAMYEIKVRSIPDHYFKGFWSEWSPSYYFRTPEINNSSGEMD

[2] = molecular target: T2, IL-7 receptor (IL-7R: CD127/CD132) on cells (human, UniProt P16871 21-459; P31785 23-369); experiment: cell-based or functional assay
T2 sequence (looked up) 1: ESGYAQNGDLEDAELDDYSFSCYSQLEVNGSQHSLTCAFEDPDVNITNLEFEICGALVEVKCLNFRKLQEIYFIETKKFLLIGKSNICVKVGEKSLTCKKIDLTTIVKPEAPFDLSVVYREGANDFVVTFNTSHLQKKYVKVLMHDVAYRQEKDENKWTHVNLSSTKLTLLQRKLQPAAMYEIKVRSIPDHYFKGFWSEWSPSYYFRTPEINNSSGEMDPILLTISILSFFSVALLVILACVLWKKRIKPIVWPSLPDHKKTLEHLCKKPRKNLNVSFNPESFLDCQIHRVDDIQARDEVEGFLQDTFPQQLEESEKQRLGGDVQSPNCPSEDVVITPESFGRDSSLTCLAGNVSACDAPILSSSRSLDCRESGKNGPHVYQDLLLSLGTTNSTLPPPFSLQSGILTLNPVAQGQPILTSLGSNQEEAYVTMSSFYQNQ
T2 sequence (looked up) 2: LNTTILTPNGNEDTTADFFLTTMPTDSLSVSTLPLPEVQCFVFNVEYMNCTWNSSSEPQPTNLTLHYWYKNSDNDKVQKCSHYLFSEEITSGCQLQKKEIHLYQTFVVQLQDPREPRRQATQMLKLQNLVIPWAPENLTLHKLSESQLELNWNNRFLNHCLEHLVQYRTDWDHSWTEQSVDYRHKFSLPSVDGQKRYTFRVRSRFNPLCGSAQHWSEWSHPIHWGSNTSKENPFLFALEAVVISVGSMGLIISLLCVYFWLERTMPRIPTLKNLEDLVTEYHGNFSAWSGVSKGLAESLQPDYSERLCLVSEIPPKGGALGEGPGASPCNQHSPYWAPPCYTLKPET

[3] = molecular target: T3, human PD-1 and human CD127 co-expressed on cells (Jurkat, CHO or U937) (human, UniProt Q15116 25-288; P16871 21-459); experiment: flow cytometry, 1:1 co-culture of CHO PD-1+CD127+ and CHO PD-1-CD127+ cells, anti IgG-PE; number printed over the pair of bars
T3 construct: whole, on cells; two separate receptors on one cell, not a complex; also called PD-1+CD127+ cells; PD-1(+)CD127(+) cells

[4] = molecular target: T1, CD127 recombinant protein (Histidine …); experiment: double binding ELISA: PD-1 immobilised, revelation with CD127 receptor (given as ED50)
[5] = molecular target: T4, recombinant human PD-1 (rPD1; Sino Biologicals, reference 10377-H08H) (human, UniProt Q15116 in part); experiment: ELISA: human PD-1 immobilised (given as ED50)
T4 construct: bought; also called hPD1; PD-1 receptor

[6] = molecular target: T1, CD127 recombinant protein (Histidine …); experiment: sandwich ELISA, PD-1 immobilised, molecule preincubated with His-tagged CD127, anti-His-biotin + streptavidin-peroxidase, 450 nm
[7] = molecular target: T4, recombinant human PD-1 (rPD1; Sino …); experiment: ELISA, recombinant human PD-1 immobilised, anti-human Fc-peroxidase, TMB, 450 nm
[8] = molecular target: T5, CD127 (Sinobiological, 10975-H03H-50) (UniProt P16871 21-239); experiment: Biacore: CD127 immobilised on CM5 chip, fusion as analyte (0.35-30 nM), two-state reaction model
T5 construct: bought; immobilised on the CM5 chip in the Biacore assays; also called CD127 receptor
T5 sequence (looked up): T1 sequence (looked up)

B1: anti PD-1 IL-7 D74E bifunctional molecule, IgG4m isotype, (GGGGS)3 linker (other)
heavy: QIQLVQSGSELKKPGASVKVSCKASGYTFTHYAMNWVRQAPGQGLEWMGWINTNTGEPTYAQGFTGRFVFSLDTSVSTAYLQISSLKAEDTAVYYCAREREPGMDNWGQGTLVTVSSASTKGPSVFPLAPCSRSTSESTAALGCLVKDYFPEPVTVSWNSGALTSGVHTFPAVLQSSGLYSLSSVVTVPSSSLGTKTYTCNVDHKPSNTKVDKRV[… human IgG4 Fc with S228P L445P (EU numbers) …]GGGGSGGGGSGGGGSDCDIEGKDGKQYESVLMVSIDQLLDSMKEIGSNCLNNEFNFFKRHICDANKEGMFLFRAARKLRQFLKMNSTGEFDLHLLKVSEGTTILLNCTGQVKGRKPAALGEAQPTKSLEENKSLKEQKKLNDLCFLKRLLQEIKTCWNKILMGTKEH
light: DVVMTQSPLSLPVTLGQPASISCRSSQSLVHANTNTYLEWYQQRPGQSPRLLIYKVSNRFSGVPDRFSGSGSGTDFTLKISRVEAEDVGVYYCFQGTHVPNTFGQGTKLEIKRTVAAPSVFIFPPSDEQLKSGTASVVCLLNNFYPREAKVQWKVDNALQSGNSQESVTEQDSKDSTYSLSSTLTLSKADYEKHKVYACEVTHQGLSSPVTKSFNRGEC
notes: as m11 with IL-7 D74E; also called IgG4 G4S3 IL7 D74E; IgG4 G4S3 IL7D74E
EC50 [1]: 0.104 µg/mL | pSTAT5 EC50 in CD3 T cells of human PBMCs [2]: 389 ng/mL

B5: anti PD-1 IL-7 SS2 bifunctional molecule, IgG4m isotype, (GGGGS)3 linker (other)
heavy: QIQLVQSGSELKKPGASVKVSCKASGYTFTHYAMNWVRQAPGQGLEWMGWINTNTGEPTYAQGFTGRFVFSLDTSVSTAYLQISSLKAEDTAVYYCAREREPGMDNWGQGTLVTVSSASTKGPSVFPLAPCSRSTSESTAALGCLVKDYFPEPVTVSWNSGALTSGVHTFPAVLQSSGLYSLSSVVTVPSSSLGTKTYTCNVDHKPSNTKVDKRV[… human IgG4 Fc with S228P L445P (EU numbers) …]GGGGSGGGGSGGGGSDSDIEGKDGKQYESVLMVSIDQLLDSMKEIGSNCLNNEFNFFKRHISDANKEGMFLFRAARKLRQFLKMNSTGDFDLHLLKVSEGTTILLNSTGQVKGRKPAALGEAQPTKSLEENKSLKEQKKLNDLCFLKRLLQEIKTSWNKILMGTKEH
light: B1 light
notes: as m11 with IL-7 SS2; also called IgG4 G4S3 IL7 SS2; IgG4 Fc G4S3 Fc IL-7 SS2
EC50 (read off the curve) [7]: ~0.006 µg/mL | Kd [8]: 7.22 nM | Kd2 [8]: 0.00155 s⁻¹ | kon [8]: 611000 M⁻¹ s⁻¹ | pSTAT5 EC50 in CD3 T cells of human PBMCs (second experiment, other donor) [2]: 2400 ng/mL | fold difference of the binding EC50, PD1-CD127+ cells over PD1+CD127+ cells [3]: 33 fold

B7: anti PD-1 IL-7 M17L bifunctional molecule, IgG4m isotype, (GGGGS)3 linker (other)
heavy: QIQLVQSGSELKKPGASVKVSCKASGYTFTHYAMNWVRQAPGQGLEWMGWINTNTGEPTYAQGFTGRFVFSLDTSVSTAYLQISSLKAEDTAVYYCAREREPGMDNWGQGTLVTVSSASTKGPSVFPLAPCSRSTSESTAALGCLVKDYFPEPVTVSWNSGALTSGVHTFPAVLQSSGLYSLSSVVTVPSSSLGTKTYTCNVDHKPSNTKVDKRV[… human IgG4 Fc with S228P L445P (EU numbers) …]GGGGSGGGGSGGGGSDCDIEGKDGKQYESVLLVSIDQLLDSMKEIGSNCLNNEFNFFKRHICDANKEGMFLFRAARKLRQFLKMNSTGDFDLHLLKVSEGTTILLNCTGQVKGRKPAALGEAQPTKSLEENKSLKEQKKLNDLCFLKRLLQEIKTCWNKILMGTKEH
light: B1 light
notes: as m11 with IL-7 M17L; also called IGG4 G4S3 IL7 M17L
EC50 [1]: 0.021 µg/mL | pSTAT5 EC50 in CD3 T cells of human PBMCs [2]: 128 ng/mL

Second part, the binder after the results:

fold difference of the binding EC50, PD1-CD127+ cells over PD1+CD127+ cells [3]: 6 fold
B2: Anti PD-1 IL-7 wt (other)
heavy: QIQLVQSGSELKKPGASVKVSCKASGYTFTHYAMNWVRQAPGQGLEWMGWINTNTGEPTYAQGFTGRFVFSLDTSVSTAYLQISSLKAEDTAVYYCAREREPGMDNWGQGTLVTVSSASTKGPSVFPLAPCSRSTSESTAALGCLVKDYFPEPVTVSWNSGALTSGVHTFPAVLQSSGLYSLSSVVTVPSSSLGTKTYTCNVDHKPSNTKVDKRV[… human IgG4 Fc with S228P L445P (EU numbers) …]GGGGSGGGGSGGGGSDCDIEGKDGKQYESVLMVSIDQLLDSMKEIGSNCLNNEFNFFKRHICDANKEGMFLFRAARKLRQFLKMNSTGDFDLHLLKVSEGTTILLNCTGQVKGRKPAALGEAQPTKSLEENKSLKEQKKLNDLCFLKRLLQEIKTCWNKILMGTKEH
light: B1 light
notes: it is either m11 (IgG4m) or m24 (IgG1m), which of the two cannot be told

EC50 [4]: 0.0049 µg/mL | EC50 [5]: 0.0064 µg/mL
B3: anti-PD-1 bifunctional molecule comprising IL-7 D74E, GGGGS linker, IgG1N298A isotype (other)
heavy: QIQLVQSGSELKKPGASVKVSCKASGYTFTHYAMNWVRQAPGQGLEWMGWINTNTGEPTYAQGFTGRFVFSLDTSVSTAYLQISSLKAEDTAVYYCAREREPGMDNWGQGTLVTVSS[… human IgG1 constant region with changes …]GGGGSDCDIEGKDGKQYESVLMVSIDQLLDSMKEIGSNCLNNEFNFFKRHICDANKEGMFLFRAARKLRQFLKMNSTGEFDLHLLKVSEGTTILLNCTGQVKGRKPAALGEAQPTKSLEENKSLKEQKKLNDLCFLKRLLQEIKTCWNKILMGTKEH
light: B1 light
notes: also called IgG1m G4S D74E

binding result [6]: binds
B4: anti PD-1 IL-7 D74E bifunctional molecule, IgG1m isotype, (GGGGS)3 linker (other)
heavy: QIQLVQSGSELKKPGASVKVSCKASGYTFTHYAMNWVRQAPGQGLEWMGWINTNTGEPTYAQGFTGRFVFSLDTSVSTAYLQISSLKAEDTAVYYCAREREPGMDNWGQGTLVTVSS[… human IgG1 constant region with changes …]GGGGSGGGGSGGGGSDCDIEGKDGKQYESVLMVSIDQLLDSMKEIGSNCLNNEFNFFKRHICDANKEGMFLFRAARKLRQFLKMNSTGEFDLHLLKVSEGTTILLNCTGQVKGRKPAALGEAQPTKSLEENKSLKEQKKLNDLCFLKRLLQEIKTCWNKILMGTKEH
light: B1 light
notes: as m24 with IL-7 D74E; also called D74 mutant

EC50 [1]: 0.0223 µg/mL | pSTAT5 EC50 in CD3 T cells of human PBMCs [2]: 66 ng/mL
B6: anti PD-1 IL-7 Y12F bifunctional molecule, IgG4m isotype, (GGGGS)3 linker (other)
heavy: QIQLVQSGSELKKPGASVKVSCKASGYTFTHYAMNWVRQAPGQGLEWMGWINTNTGEPTYAQGFTGRFVFSLDTSVSTAYLQISSLKAEDTAVYYCAREREPGMDNWGQGTLVTVSSASTKGPSVFPLAPCSRSTSESTAALGCLVKDYFPEPVTVSWNSGALTSGVHTFPAVLQSSGLYSLSSVVTVPSSSLGTKTYTCNVDHKPSNTKVDKRV[… human IgG4 Fc with S228P L445P (EU numbers) …]GGGGSGGGGSGGGGSDCDIEGKDGKQFESVLMVSIDQLLDSMKEIGSNCLNNEFNFFKRHICDANKEGMFLFRAARKLRQFLKMNSTGDFDLHLLKVSEGTTILLNCTGQVKGRKPAALGEAQPTKSLEENKSLKEQKKLNDLCFLKRLLQEIKTCWNKILMGTKEH
light: B1 light
notes: as m11 with IL-7 Y12F; also called IgG4 G4S3 IL7 Y12F
